Molecules are shown by their SMILES. About 14,000 (4.5%) of roughly 310,000 compounds showed an effect of 50% or more. The effect is printed as a negative number. Some of the results follow.

We go through 43 compounds from publication PMC4336329 (PLoS ONE, 2015).
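Further: peak tail current of the secondary pulse compared with the same well before compound.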

Sequence of human ether-à-go-go-related gene (hERG) potassium channel (Q12809 whole entry, looked up): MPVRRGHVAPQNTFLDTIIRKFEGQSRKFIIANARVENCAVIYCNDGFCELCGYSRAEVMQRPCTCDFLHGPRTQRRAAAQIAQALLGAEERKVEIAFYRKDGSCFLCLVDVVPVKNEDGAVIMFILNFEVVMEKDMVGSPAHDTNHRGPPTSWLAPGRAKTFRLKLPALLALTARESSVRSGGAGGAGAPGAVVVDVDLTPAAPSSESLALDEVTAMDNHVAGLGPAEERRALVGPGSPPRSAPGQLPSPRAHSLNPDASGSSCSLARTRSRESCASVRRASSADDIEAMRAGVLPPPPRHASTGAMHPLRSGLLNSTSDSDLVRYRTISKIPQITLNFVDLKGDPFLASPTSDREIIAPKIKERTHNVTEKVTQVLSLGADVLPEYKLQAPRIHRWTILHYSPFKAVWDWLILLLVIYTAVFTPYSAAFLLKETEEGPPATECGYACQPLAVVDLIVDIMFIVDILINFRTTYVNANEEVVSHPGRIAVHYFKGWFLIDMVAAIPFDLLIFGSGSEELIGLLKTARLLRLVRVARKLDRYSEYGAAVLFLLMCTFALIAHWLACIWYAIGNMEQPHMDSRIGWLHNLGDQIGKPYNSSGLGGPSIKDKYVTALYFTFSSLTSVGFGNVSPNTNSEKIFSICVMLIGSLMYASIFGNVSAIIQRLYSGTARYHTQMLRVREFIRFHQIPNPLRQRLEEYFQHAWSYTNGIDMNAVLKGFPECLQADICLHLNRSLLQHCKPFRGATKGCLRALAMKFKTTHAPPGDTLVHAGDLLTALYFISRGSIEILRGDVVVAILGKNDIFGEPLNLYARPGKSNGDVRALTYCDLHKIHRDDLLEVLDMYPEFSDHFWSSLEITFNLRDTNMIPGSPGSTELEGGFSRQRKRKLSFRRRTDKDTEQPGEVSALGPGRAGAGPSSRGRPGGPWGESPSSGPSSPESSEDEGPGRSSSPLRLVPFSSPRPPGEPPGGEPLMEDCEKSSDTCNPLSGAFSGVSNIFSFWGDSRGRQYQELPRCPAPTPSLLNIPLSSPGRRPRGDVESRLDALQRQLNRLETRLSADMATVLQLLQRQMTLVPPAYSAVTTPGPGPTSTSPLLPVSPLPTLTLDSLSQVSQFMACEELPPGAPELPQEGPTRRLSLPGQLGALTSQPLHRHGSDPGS

This test concerns the target human ether-à-go-go-related gene (hERG) potassium channel (human, UniProt Q12809). Briefly: primary screen, population patch clamp on CHO cells stably expressing hERG.
For `COc1cc(OC)cc(C(=O)Nc2sc3c(c2C(N)=O)CCC3)c1`, the “hERG current change (%, negative = inhibition) at 10uM” value worked out at 25.8%.
As for `CCOc1ccc(CCNC(=O)COC(=O)COc2ccc(C(C)=O)cc2)cc1OCC`, the “hERG current change (%, negative = inhibition) at 10uM” value was -1.52%.
Take `COc1ccc(C(=O)c2ccc(OC)c3cccc(O)c23)cc1OC`: the “hERG current change (%, negative = inhibition) at 10uM” value is -6.79%.
On to `COc1ccc(N2CCN(C(=S)Nc3cccc(C)c3C)CC2)cc1`, for which the “hERG current change (%, negative = inhibition) at 10uM” value is 8.84%.
For `Cc1ccc(C(C)C)cc1C(=O)CC1(O)C(=O)N(C)c2ccccc21` (stereo not shown) the value was 7.46%.
The same measure for `O=C(CC1C(=O)NCCN1Cc1ccccc1C(F)(F)F)NC1CCCCC1` (stereo not shown): 14.6%.
For `CC1=C(C(=O)OCc2ccccc2)C(c2ccccc2-c2ccccc2)NC(=O)N1CCCCCC(=O)O` (stereo not shown) the value was -63.1%; for `CC1(c2nnc(-c3ccccc3)o2)CC(c2ccccc2)=NO1` (stereo not shown), -11.6%.
In the case of `C/C=C/c1ccc(OCC(O)CN2CCCCC2CC)c(OC)c1` (stereo not shown), the “hERG current change (%, negative = inhibition) at 10uM” value is recorded as -43.9%.
The same measure for `COc1ccc2cc3cc(C(=O)N4CCN(c5ccccn5)CC4)oc3nc2c1`: -6.87%; for `COc1ccccc1-n1c(=O)c2c3c(sc2n2c(SC)nnc12)CCC3`: -12.5%; for `CCS(=O)(=O)N1CCN(Cc2ccc([N+](=O)[O-])cc2)CC1.O=C(O)C(=O)O`: -44.4%.
Regarding `COc1cccc(NC(=O)c2ccnc(N3CCC(C(=O)NCc4ccccc4OC)CC3)c2)c1`, the “hERG current change (%, negative = inhibition) at 10uM” value was -18.8%.
The same measure for `O=C(CN1C(=O)CC(c2ccccc2)S(=O)(=O)c2ccccc21)N1CCOCC1` (stereo not shown): 19.1%; for `CCn1c(C)nc2cc(C(=O)NNC(=S)Nc3ccccc3Cl)ccc21`: 5.86%; for `CC1(C)CC(=O)C=C(c2ccc(-c3ccccc3)cc2)C1`: 19.1%.
For `CC1CCC(NC(=O)CN(C)S(=O)(=O)c2cccc3cccnc23)CC1` (stereo not shown) the value was -10.4%; for `CCC(C)(C)n1nnnc1C(c1cccnc1)N1CCN(c2cccc(C(F)(F)F)c2)CC1` (stereo not shown), -41%.
The same measure for `OC1(c2ccccc2F)CCN(Cc2nnnn2Cc2ccc(F)cc2)CC1`: 8.52%.
`O=C(NC1CCCCCC1)c1ccc[nH]c1=S`: the “hERG current change (%, negative = inhibition) at 10uM” value was determined as 31.1%.
As to `CCN(CC)C(=O)Cn1cc(SCC(=O)NC2CCCC2)c2ccccc21`, the “hERG current change (%, negative = inhibition) at 10uM” value is on record as -36.9%.
Take `Cc1cccc(C)c1NC(=O)COC(=O)c1cccc2c1C(=O)c1ccccc1C2=O`: the “hERG current change (%, negative = inhibition) at 10uM” value stood at 2.12%.
For `Cc1[nH]c(=S)c(C#N)c(-c2ccco2)c1C(=O)N(C)C` the value was 19.8%.
In the case of `CCC1(c2ccccc2)NC(=O)N(CC(=O)NCc2ccc(OC)cc2)C1=O` (stereo not shown), the “hERG current change (%, negative = inhibition) at 10uM” value turned out to be 13.9%.
With `C=CCn1c(COc2ccccc2)nnc1SCc1ccc(C#N)cc1`, the “hERG current change (%, negative = inhibition) at 10uM” value was -68.2%.
For `CC(C)NCCCOc1ccc(Cl)cc1Br.O=C(O)C(=O)O` the value was -54.4%.
Turning to `Cc1ccc2cc(C#N)c(NCc3ccccc3)nc2c1`, the “hERG current change (%, negative = inhibition) at 10uM” value is 9.69%.
The same measure for `CC(=O)c1c(C(C)=O)c(C)n(NC(=O)c2ccncc2)c1C`: 8.37%.
With `c1cc(CNCCc2ccc3c(c2)OCO3)ccn1`, the “hERG current change (%, negative = inhibition) at 10uM” value was determined as 18.3%.
For `COc1ccc(NC(=O)NCCN2CCN(c3cccc(Cl)c3)CC2)cc1` the value was -31.6%.
Turning to `CC(=O)CSc1nc(N(C)C)nc(N(C)C)n1`, the “hERG current change (%, negative = inhibition) at 10uM” value is reported as -5.75%.
For `C/C(=N\NC(=O)C(O)c1ccccc1)c1ccc(Br)s1` (stereo not shown), the “hERG current change (%, negative = inhibition) at 10uM” value worked out at 1.82%.
Turning to `Cc1onc(-c2ccccc2)c1C(=O)NCc1ccc(Cl)cc1`, the “hERG current change (%, negative = inhibition) at 10uM” value is 13.8%.
The same measure for `COc1ccc(CCNC(=O)C(=O)NCC2OCCN2S(=O)(=O)c2ccccc2)cc1OC` (stereo not shown): 5.8%; for `Cc1nc2oc3ccc(F)cc3c(=O)c2cc1C(=O)NC(C)(C)C`: 19.6%; for `COc1ccc(CNC(=O)CN(Cc2ccc(C)cc2)C(=O)c2csnn2)cc1`: -36.1%.
The same measure for `COc1ccc(N2CCN(CCNC(=O)CCS(=O)(=O)c3cccc4nsnc34)CC2)cc1`: -5.54%.
For `O=C(NC(N1CCOCC1)C(Cl)(Cl)Cl)c1cc([N+](=O)[O-])cc([N+](=O)[O-])c1` (stereo not shown) the value was -13.8%; for `O=C(CSc1ccc(Cl)cc1)NNC(=O)c1ccco1`, 7.31%.
For the compound `O=C(COC(=O)c1ccccc1Br)Nc1ccc(F)cc1`, the “hERG current change (%, negative = inhibition) at 10uM” value came to 9.07%.
In the case of `CCOC(=O)C1CCN(C(=O)C2CCN(S(=O)(=O)CC)CC2)CC1`, the “hERG current change (%, negative = inhibition) at 10uM” value is listed as -2.7%.
For `CCN(CC)S(=O)(=O)c1ccc(C)c(NC(=O)COC(=O)CN2C(=O)NC(C)(C)C2=O)c1` the value was -5.68%; for `CCCCN(CC)C(=O)c1ccc2c(c1)OCO2`, 10.8%.
